Test results taken from the supplement of paper PMC6531468.
The list shows a part of the results. These are enrichments in a pooled selection; single values are uncertain. Scores sum up all selected molecules that hold the word; the word was not tested alone.

Columns and labels:
Test in all cases: 6-mer SELEX enrichment z-score vs GST control; IMP3 is the RNA-binding protein IGF2BP3; higher = more enriched by binding
[1] = system: IMP3 KH1-4; conditions: construct: KH1-4 (164-579); SELEX round: R4
Procedure: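 SELEX-seq with GST-tagged IMP3 KH1-4 (Pro164-Lys579) and an N40 RNA pool, round 4. 6-mer z-score of sequence-tag enrichment normalised to the corresponding GST SELEX round; RNA k-mers written as DNA (T for U).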

[2] = system: IMP3 RRM1-2; conditions: construct: RRM1-2 (1-163); SELEX round: R2
Procedure: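 SELEX-seq with GST-tagged IMP3 RRM1-2 (Met1-Asn163) and an N40 RNA pool, round 2. 6-mer enrichment z-score normalised to GST SELEX. RNA written as DNA (T = U).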

[3] = biological target: IMP3 full-length (UniProt O00425); conditions: construct: FL IMP3 (1-579); SELEX round: R4
Procedure: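 SELEX-seq with GST-tagged full-length IMP3 and an N40 RNA pool, round 4. Each 6-mer is scored as an enrichment z-score of sequence tags containing it, normalised to the matching GST SELEX round. RNA written as DNA (T = U).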

[4] = system: IMP3 KH1-2; conditions: construct: KH1-2 (164-376); SELEX round: R4
Procedure: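 SELEX-seq with GST-tagged IMP3 KH1-2 (Pro164-Phe376) and an N40 RNA pool, round 4 (stringent 300/600 mM KCl washes). 6-mer z-score of sequence-tag enrichment normalised to the corresponding GST SELEX round; RNA k-mers written as DNA (T for U).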

[5] = system: IMP3 KH3-4; conditions: construct: KH3-4 (377-579); SELEX round: R4
Procedure: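 SELEX-seq with GST-tagged IMP3 KH3-4 (Pro377-Lys579) and an N40 RNA pool, round 4. 6-mer z-score of sequence-tag enrichment normalised to the corresponding GST SELEX round; RNA k-mers written as DNA (T for U).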

Sequence of UniProt O00425 (O00425 whole entry): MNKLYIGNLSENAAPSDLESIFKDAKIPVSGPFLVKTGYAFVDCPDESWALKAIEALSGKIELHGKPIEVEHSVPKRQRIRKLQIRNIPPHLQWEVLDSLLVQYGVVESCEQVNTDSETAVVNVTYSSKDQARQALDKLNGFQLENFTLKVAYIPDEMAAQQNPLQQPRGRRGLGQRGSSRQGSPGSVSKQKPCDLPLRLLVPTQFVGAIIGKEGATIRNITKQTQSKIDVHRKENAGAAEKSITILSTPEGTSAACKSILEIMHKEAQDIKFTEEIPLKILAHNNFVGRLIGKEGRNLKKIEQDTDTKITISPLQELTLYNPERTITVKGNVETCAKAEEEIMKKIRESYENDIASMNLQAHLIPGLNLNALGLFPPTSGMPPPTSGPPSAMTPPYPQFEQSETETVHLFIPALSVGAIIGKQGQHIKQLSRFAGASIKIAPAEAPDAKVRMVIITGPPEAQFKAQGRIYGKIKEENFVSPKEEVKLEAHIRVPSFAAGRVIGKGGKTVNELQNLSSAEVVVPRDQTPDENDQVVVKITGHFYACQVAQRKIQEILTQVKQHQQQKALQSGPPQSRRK
Sequence of IMP3 KH3-4 (chain, as listed by the source): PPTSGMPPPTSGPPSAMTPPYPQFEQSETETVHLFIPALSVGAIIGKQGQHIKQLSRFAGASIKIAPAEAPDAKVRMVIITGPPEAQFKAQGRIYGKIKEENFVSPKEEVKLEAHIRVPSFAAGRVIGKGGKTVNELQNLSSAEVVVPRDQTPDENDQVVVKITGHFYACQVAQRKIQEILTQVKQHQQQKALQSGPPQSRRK
Sequence of IMP3 KH1-4 (chain, as listed by the source): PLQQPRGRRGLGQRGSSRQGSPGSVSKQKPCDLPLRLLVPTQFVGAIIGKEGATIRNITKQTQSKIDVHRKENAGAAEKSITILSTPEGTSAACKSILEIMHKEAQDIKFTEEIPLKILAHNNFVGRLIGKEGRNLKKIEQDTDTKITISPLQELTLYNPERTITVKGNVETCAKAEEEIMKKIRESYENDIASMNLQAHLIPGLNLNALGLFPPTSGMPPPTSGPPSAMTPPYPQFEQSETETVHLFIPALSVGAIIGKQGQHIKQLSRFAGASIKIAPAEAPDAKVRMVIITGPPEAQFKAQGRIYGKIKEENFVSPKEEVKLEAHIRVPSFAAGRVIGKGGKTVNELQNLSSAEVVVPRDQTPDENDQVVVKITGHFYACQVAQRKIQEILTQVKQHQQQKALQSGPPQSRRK
Sequence of IMP3 KH1-2 (chain, as listed by the source): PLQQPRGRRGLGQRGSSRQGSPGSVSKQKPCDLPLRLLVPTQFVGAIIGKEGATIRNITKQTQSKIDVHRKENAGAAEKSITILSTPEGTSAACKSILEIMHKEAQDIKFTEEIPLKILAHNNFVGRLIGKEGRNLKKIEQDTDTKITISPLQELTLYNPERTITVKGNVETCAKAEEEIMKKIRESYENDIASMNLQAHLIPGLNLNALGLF
Sequence of IMP3 RRM1-2 (chain, as listed by the source): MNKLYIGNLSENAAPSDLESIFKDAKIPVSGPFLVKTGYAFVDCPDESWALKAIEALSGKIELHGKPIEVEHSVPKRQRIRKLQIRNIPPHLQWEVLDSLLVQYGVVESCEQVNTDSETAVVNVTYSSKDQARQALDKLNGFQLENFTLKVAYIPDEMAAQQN

| Sequence | 6-mer SELEX enrichment z-score [1] | 6-mer SELEX enrichment z-score [2] | 6-mer SELEX enrichment z-score [3] | 6-mer SELEX enrichment z-score [4] | 6-mer SELEX enrichment z-score [5] |
| --- | --- | --- | --- | --- | --- |
| GCGACC | -0.997 | -0.417 | -0.11 | -0.871 | -1.35 |
| CCTCAC | -0.532 | 0.568 | -0.311 | -0.468 | -1.12 |
| TACTAC | 0.507 | 0.107 | -0.132 | 0.654 | 0.505 |
| CACATC | 1.1 | 2.64 | 2.6 | 1.07 | -0.006 |
| GGCCTT | 0.075 | 0.25 | 0.223 | 0.032 | 0.222 |
| CTGAAC | -0.657 | -0.779 | -0.853 | -0.545 | -0.915 |
| AGTTTT | -0.026 | 0.34 | -0.082 | 0.032 | 0.278 |
| CTCTAG | -0.504 | 0.13 | -0.278 | -0.429 | -0.379 |
| CCATCG | -0.322 | 0.088 | 0.15 | -0.496 | -0.814 |
| CAGCCA | 0.31 | 0.536 | 0.771 | 0.295 | -0.41 |
| CGCGAT | -0.308 | -0.309 | -0.037 | -0.287 | -0.283 |
| CACCTG | -0.938 | -0.183 | -0.603 | -0.898 | -1.31 |
| GACCCG | -1.68 | -1.08 | -1.09 | -1.51 | -1.94 |
| CTGCTC | -0.065 | 0.229 | 0.069 | -0.036 | -0.263 |
| TACGGT | 0.243 | 0.205 | 0.103 | 0.099 | 0.191 |
| CCTGTA | -0.175 | -0.304 | -0.574 | -0.253 | -0.377 |
| TTCGAC | -0.979 | 0.005 | -0.555 | -0.905 | -0.958 |
| AGTCAG | 0.614 | 0.221 | 0.664 | 0.353 | 0.357 |
| GCTGTG | 0.098 | 0.096 | -0.047 | 0.062 | 0.047 |
| CGCTCG | -0.765 | 0.284 | 0.148 | -0.571 | -0.585 |

| Sequence | 6-mer SELEX enrichment z-score [1] | 6-mer SELEX enrichment z-score [2] | 6-mer SELEX enrichment z-score [3] | 6-mer SELEX enrichment z-score [4] | 6-mer SELEX enrichment z-score [5] |
| --- | --- | --- | --- | --- | --- |
| CCTGTC | -0.257 | 0.04 | -0.217 | -0.241 | -0.637 |
| AGAAGG | 0.571 | -0.52 | -0.037 | 0.546 | 0.786 |
| GCGCGT | -1.09 | 0.203 | -0.156 | -0.913 | -0.827 |
| CTCTGT | 0.19 | 0.141 | 0.033 | 0.131 | -0.009 |
| TACGCG | -0.176 | -0.104 | -0.052 | -0.181 | -0.056 |
| CTACGT | -0.354 | -0.042 | -0.231 | -0.288 | -0.275 |
| TTCACG | 0.236 | 0.579 | 0.634 | 0.126 | 0.06 |
| TTGAGA | -0.617 | -0.357 | -0.65 | -0.602 | -0.192 |
| TACACG | 0.565 | 0.178 | 0.56 | 0.472 | 0.363 |
| ACTGCT | 0.537 | 0.009 | 0.053 | 0.661 | 0.186 |
| GCCGGG | -0.184 | -0.407 | 0.744 | 0.233 | -0.077 |
| TGTGCC | -0.58 | -0.057 | -0.396 | -0.525 | -0.812 |
| AGGTCT | 0.072 | 0.357 | 0.312 | 0.135 | 0.261 |
| TCAATC | 0.43 | 1.96 | 1.09 | 0.352 | 0.099 |
| ATCCTA | -0.114 | -0.3 | -0.463 | -0.158 | -0.312 |
| CGTTCT | -0.116 | 0.244 | 0.062 | -0.053 | -0.067 |
| ATAGAT | 1.54 | -0.212 | 0.309 | 1.27 | 2.06 |
| CACGCG | -0.625 | 0.266 | 0.632 | -0.54 | -0.742 |
| TTGCGT | -0.956 | 0.404 | -0.496 | -0.812 | -0.597 |
| CCTCCC | -0.477 | -0.693 | -1.06 | -0.211 | -1.3 |

| Sequence | 6-mer SELEX enrichment z-score [1] | 6-mer SELEX enrichment z-score [2] | 6-mer SELEX enrichment z-score [3] | 6-mer SELEX enrichment z-score [4] | 6-mer SELEX enrichment z-score [5] |
| --- | --- | --- | --- | --- | --- |
| ACAGTG | 0.502 | 0.273 | 0.742 | 0.271 | 0.224 |
| CTATAG | 0.484 | 0.034 | 0.053 | 0.433 | 0.572 |
| CATCGG | 0.356 | 0.699 | 1.52 | 0.094 | -0.033 |
| TCTTTG | 0.031 | 0.4 | 0.088 | 0.042 | 0.185 |
| CCGTCC | -0.272 | -0.308 | 0.122 | -0.165 | -0.923 |
| TACTAG | 0.348 | 0.129 | -0.018 | 0.274 | 0.506 |
| TGTGGG | 0.42 | 0.297 | 0.245 | 0.485 | 0.605 |
| ACATTT | 1.59 | 1.14 | 1.52 | 1.92 | 1.82 |
| CCAGCT | -0.381 | -0.01 | -0.114 | -0.325 | -0.497 |
| TTGCGG | 0.108 | 0.267 | 0.171 | 0.041 | 0.226 |
| ATAATG | 1.59 | -0.42 | 0.044 | 1.18 | 2.36 |
| GGCTTT | 0.304 | 0.531 | 0.397 | 0.347 | 0.737 |
| ATTTAC | 1.38 | 0.132 | 0.455 | 1.44 | 1.72 |
| TAATGC | 0.535 | -0.237 | -0.186 | 0.399 | 0.593 |
| GTTCCG | -0.116 | -0.038 | 0.021 | -0.066 | -0.199 |
| ATCGTT | 0.175 | 0.23 | 0.086 | -0.05 | 0.128 |
| AGTCTT | -0.185 | 0.317 | 0.096 | -0.152 | -0.028 |
| ATTTTC | 1.25 | 0.481 | 0.676 | 1.38 | 1.37 |
| AAGGTC | -0.022 | -0.19 | 0.122 | -0.123 | 0.084 |
| ATAATC | 1.14 | 0.23 | 0.458 | 1.16 | 1.29 |
